The test concerns MDA-MB-468 breast. Description: NCI anticancer screen, dose series, 48 h.

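Dose response: 5 concentrations. Exposure: 48 h. Format: 96-well plates. Endpoint: linear interpolation; highest concentration if not reached. TGI denotes the concentration required for complete inhibition of growth.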 Not every entry of the source has a single result; some have several. Only these are listed. The source may hold further records. A record mostly stands for its own series of concentrations, which the source does not state; some values may only mark the edge of a range.

Consider `CC(=O)N[C@H]1C=C[C@@H]2/C=C(C)/C=C/[C@@H](C)[C@H]([C@H](C)[C@H](O)[C@@H](C)NC(C)=O)OC(=O)/C=C/C=C(C)\C=C\[C@]2(C)C1`, for which the TGI is 13.7 nM and 1.44 µM.
To `COc1cc(C(=O)/C(C)=C/c2c[nH]c3ccccc23)cc(OC)c1OC` belongs 84 nM and > 100 µM.

(Values after PubChem BioAssay (NCI).)
